Read counts are not given, so values of variants with three or more changes are uncertain.
B1: CPEB3 Ribozyme (parent)
chain: UAACAGGGGGCCACAGCAGAAGCGUUCACGUCGCAGCCCCUGUCAGAUUCUGGUGAAUCUGCGAAUUCUGCUGUAUAUCUC

Variants of: B1
Test: self-cleavage, relative activity (ratio to wild type); higher = more cleavage; in vitro, sequencing
How it was run: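 Relative activity was defined as the cleaved/total read fraction for a variant divided by the same fraction for the unmutated ribozyme. CPEB3 self-cleaving ribozyme libraries were made by rounds of error-prone PCR, barcoded, and transcribed in vitro with T7 RNA polymerase for 5 hours at 37°C, and cleavage ran through transcription plus a 15 min DNase I step before EDTA. Illumina sequencing of template-switched reverse transcripts gave the reads, and DNA sequencing mapped the barcodes. Averages come from three batches, using variants with at least 5 reads.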

Row | Variant | self-cleavage
1 | A5G A20U U48C A56G | 0.32
2 | A5G A35G C38A A64G U66A | 0.08
3 | A5G A28U U72C A77G | 0.58
4 | A5G A35U A65G U72A | 0.15
5 | A5G A35G G36C | 1.12
6 | A5G A21U G24A A35U A56G | 0.08
7 | A5G C37A A56G | 0.2
8 | A5G A35G U74A | 1.24
9 | A5G A20G U26G A65G U69C | 0
10 | A5G A20G C29U | 0.3
11 | A5G A20G U41C | 0.2
12 | A5G A28G U51A U72C | 0.45
13 | A5G A18U U80A | 0.49
14 | A5G A28U U31C G52A | 0.16
15 | A5G A57G G63A U66A | 0.34
16 | A5G C17U A18G U67C U69C | 0.32
17 | A5G C12A A15C G24A | 0.07
18 | A5G A21G U54C | 0.44
19 | A5G A28G C44A U69A | 0.07
20 | A5G C11A U66C | 0.14
21 | A5G A20G G33C A45U U48C U72G U76C | 0.08

Row | Variant | self-cleavage
22 | A5G A75U U78C | 0.95
23 | A5G A20G U26A U72A | 0.1
24 | A5G A35C U51C | 0.55
25 | A5G A28G A45G U54A G63C G70A A77G | 0.12
26 | A5G A35G U43C A64G | 1.02
27 | A5G C23A U43A U80A | 0.11
28 | A5G A21G U31A U41A U69A | 0.07
29 | A5G C50A A65G | 0.23
30 | A5G A45G A64G U67C | 0.38
31 | A5G C14U U41G U51C U78C | 0.14
32 | A5G A35U U43C U54C G61U | 0.21
33 | A5G C11G A13U A15U G30A A56G A77G | 0.06
34 | A5G A47G U66A U78C | 0.12
35 | A5G A35G A45U U72A | 0.32
36 | A5G A35G U72C U78C | 1.25
37 | A5G C11U A13G U26C G36U | 0.12
38 | A5G C11G A18G U43A U66C U72C | 0.09
39 | A5G C12U A28U U67A U69A U72A U80C | 0.11
40 | A5G C14U U26C U60C | 0.1
41 | A5G A28G U48A U67C U69C U72A | 0.11
42 | A5G C39U U66C | 0.45

Row | Variant | self-cleavage
43 | A5G A18U A47G A57G | 0.52
44 | A5G A18G A56C U78C | 0.43
45 | A5G C23U U49C U51A A64G | 0.11
46 | A5G C12A U67A U72C U76C U80C | 0.19
47 | A5G C12U A13U A21G U43A | 0.86
48 | A5G A20G C27U U31C G63A | 0.25
49 | A5G C38U U41C U51A | 0.68
50 | A5G C38U U43C U51G U72A U74C | 0.15
51 | A5G G6A A20U A56G U76A A77G | 0.05
52 | A5G C14U A35G A45U | 0.93
53 | A5G C23G A57G | 0.33
54 | A5G A35U G52C | 0.7
55 | A5G A28U U43A U66C U67A U72C U74C | 0.32
56 | A5G A21G U41C G52C U54A | 0.31
57 | A5G A20G A28G U74A U78C | 0.15
58 | A5G A35G U54C A75U U78C | 1.17
59 | A5G A21G A35U C37U A56U U60C | 0.08
60 | A5G C17U C32U G42A U69C | 0.7
61 | A5G A20U A21G A35U A57G U60A | 0.07
62 | A5G C11A A56G A64U U69G | 0.06
63 | A5G A35G G36A A45C U54C U67C | 0.09

Row | Variant | self-cleavage
64 | A5G C34U A35G U60A U67C | 0.07
65 | A5G A28G U58C U69C | 0.24
66 | A5G A65G U69A U72A U78A | 0.13
67 | A5G C17G U41A U48C U72A | 0.09
68 | A5G C44A U69C | 0.12
69 | A5G C12U A20G | 0.66
70 | A5G A21U U72A | 0.39
71 | A5G C27U U41C U54A | 0.08
72 | A5G A21G U60A A64G | 0.14
73 | A5G A45U A64G | 0.33
74 | A5G C29U U31A A45U | 0.16
75 | A5G A21G A56G U72A | 0.17
76 | A5G G6A U25C U41C U66C U80G | 0.07
77 | A5G A28G U51C A56G U74A U80G | 0.45
78 | A5G C14U U51C G52U | 0.99
79 | A5G C14U C32U | 0.29
80 | A5G A28G U43C U49G U58C | 0
81 | A5G A28G A64G U69G | 0.22
82 | A5G A28U U49C A56G U69C | 0.16
83 | A5G A18U U41G A75U | 0.11
84 | A5G C29U U60C A65G | 0.55

Source: the RNAGym collection of RNA variant scans (doi:10.1093/nar/gkz1192)
